# “And” between values parts separate entries of the source, which are not always exact repeats. Identical values can stand only once. Inconclusive means that the source gave no clear call. Such entries were picked first, then a sample of the others. For part of these data: A potency beside an inconclusive call is a rough fit, not a confirmed value. The source made the active and inactive calls. Unless noted, calls come from the whole dose curve; as a rule, active = well fitted curve in the direction sought with a large enough effect in the repeat runs; inconclusive = weak or mixed curves; inactive = no such curve, though single readings can be large; an effect the other way counts as inactive or inconclusive.
# Assays:
# [1] = qHTS assay to identify small molecule antagonists of the androgen receptor (AR) signaling pathway using the MDA cell line in the presence of 0.5 nM R1881 - cell viability counter screen (AID 1259242); note: nearly all actives have a fitted effect of over 45% in size; note: potency is the fitted concentration of half-maximal effect
# How it was run: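 Cells seeded at 3,000/well and allowed 5 hr at 37C, 0% CO2 before compound transfer and R1881 (0.5 nM final) addition; 16 hr later, live-cell protease fluorescence indicated cytotoxicity.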
# [2] = target: Androgen receptor (Homo sapiens) (UniProt P10275); assay: qHTS assay to identify small molecule antagonists of the androgen receptor (AR) signaling pathway using the MDA cell line in the presence of 0.5 nM R1881 (AID 1259243); note: potency is the fitted concentration of half-maximal effect; nearly all actives have a fitted effect of over 50% in size
# Chain of UniProt P10275 (P10275 whole entry, looked up): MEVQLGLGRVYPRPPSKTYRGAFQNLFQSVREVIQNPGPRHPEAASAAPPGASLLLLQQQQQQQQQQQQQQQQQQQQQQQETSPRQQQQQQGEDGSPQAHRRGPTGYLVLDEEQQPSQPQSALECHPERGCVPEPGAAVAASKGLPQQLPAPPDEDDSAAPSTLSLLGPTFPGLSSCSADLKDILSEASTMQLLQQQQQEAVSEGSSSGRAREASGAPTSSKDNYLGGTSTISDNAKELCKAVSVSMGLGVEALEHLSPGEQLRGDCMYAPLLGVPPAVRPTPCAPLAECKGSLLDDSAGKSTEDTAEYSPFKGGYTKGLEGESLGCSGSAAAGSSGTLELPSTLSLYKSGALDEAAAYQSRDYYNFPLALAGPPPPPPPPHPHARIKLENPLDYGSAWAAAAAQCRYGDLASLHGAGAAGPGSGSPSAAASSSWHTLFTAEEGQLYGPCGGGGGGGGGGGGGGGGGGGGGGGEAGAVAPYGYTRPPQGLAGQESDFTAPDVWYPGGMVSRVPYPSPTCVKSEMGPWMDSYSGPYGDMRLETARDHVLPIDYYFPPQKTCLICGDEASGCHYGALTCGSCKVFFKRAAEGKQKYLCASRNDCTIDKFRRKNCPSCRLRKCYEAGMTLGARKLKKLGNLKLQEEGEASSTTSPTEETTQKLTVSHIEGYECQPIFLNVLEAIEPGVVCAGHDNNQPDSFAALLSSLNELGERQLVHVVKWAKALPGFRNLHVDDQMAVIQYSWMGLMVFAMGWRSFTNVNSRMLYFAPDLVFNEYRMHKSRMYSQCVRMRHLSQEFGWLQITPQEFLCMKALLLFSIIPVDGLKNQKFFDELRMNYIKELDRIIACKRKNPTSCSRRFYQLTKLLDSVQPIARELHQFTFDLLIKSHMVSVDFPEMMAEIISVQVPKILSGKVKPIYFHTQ
# How it was run: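 Luminescence from an AR/GR-responsive MMTV-luciferase construct in MDA-kb2 breast carcinoma cells, read 30 min after ONE-Glo, following 16 hr co-treatment with compounds and 0.5 nM R1881.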
# [3] = target: Estrogen receptor (Homo sapiens) (UniProt P03372); assay: qHTS assay to identify small molecule antagonists of the estrogen receptor alpha (ER-alpha) signaling pathway using the BG1 cell line in the presence of 0.1 nM 17-beta-estradiol (AID 1259244); note: potency is the fitted concentration of half-maximal effect; nearly all actives have a fitted effect of over 50% in size
# Chain of UniProt P03372 (P03372 whole entry, looked up): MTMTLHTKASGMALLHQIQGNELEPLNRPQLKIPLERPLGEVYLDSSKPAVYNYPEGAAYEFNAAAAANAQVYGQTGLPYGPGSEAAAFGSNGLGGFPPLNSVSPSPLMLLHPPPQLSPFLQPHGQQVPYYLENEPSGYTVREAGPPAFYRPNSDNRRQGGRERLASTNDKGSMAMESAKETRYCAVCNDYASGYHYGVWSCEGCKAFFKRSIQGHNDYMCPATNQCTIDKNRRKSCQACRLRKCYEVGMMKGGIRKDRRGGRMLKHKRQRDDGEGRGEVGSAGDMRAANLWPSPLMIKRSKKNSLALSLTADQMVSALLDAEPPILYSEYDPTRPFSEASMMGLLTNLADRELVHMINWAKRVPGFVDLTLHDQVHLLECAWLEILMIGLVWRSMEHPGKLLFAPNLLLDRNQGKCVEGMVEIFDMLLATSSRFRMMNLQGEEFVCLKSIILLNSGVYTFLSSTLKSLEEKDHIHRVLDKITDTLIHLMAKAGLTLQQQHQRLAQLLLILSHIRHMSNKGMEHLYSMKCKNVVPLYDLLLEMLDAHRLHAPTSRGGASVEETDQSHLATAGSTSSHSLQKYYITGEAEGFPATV
# How it was run: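 Luciferase signal from VM7Luc4E2 ERE-reporter cells, co-dosed with test compound and 0.1 nM final 17beta-estradiol for 22 h, read with ONE-Glo.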
# [4] = qHTS assay to identify small molecule antagonists of the sonic hedgehog signaling (Shh) pathway - cell viability counter screen (AID 1259367); note: nearly all actives have a fitted effect of over 55% in size; note: potency is the fitted concentration of half-maximal effect
# How it was run: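 Fluorescence read-out (CellTiter-Fluor, 1 hr at 37C) taken after 23 hr compound treatment of 3T3 Gli1-Luc cells stimulated with conditioned medium. Cells were seeded at 2,000 per well and pre-incubated 4 hr.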
# [5] = qHTS assay to identify small molecule antagonists of the sonic hedgehog signaling (Shh) pathway (AID 1259369; calls by dose curve; note: potency is the fitted concentration of half-maximal effect; nearly all actives have a fitted effect of over 45% in size)
# How it was run: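 Read-out is luminescence from a firefly luciferase gene controlled by the Gli1 response element, in 3T3Gli1-Luc cells pre-incubated 4hr then exposed to compounds and conditioned medium for 24hr.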
# [6] = qHTS assay to identify small molecule HDAC inhibitors (AID 1259364);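 note: wild-type HCT-116 cells with endogenous class I/II HDAC activity; top concentration of the series differs between compounds; nearly all actives have a fitted effect of over 45% in size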
# How it was run: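 HCT-116 wt cells, 1,500/well, overnight attach. Compounds (DMSO) 2 h, 37 °C. HDAC-Glo I/II, 30 min RT. Luminescence.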
# [7] = qHTS assay to identify small molecule agonists of the sonic hedgehog signaling (Shh) pathway - cell viability counter screen (AID 1259366); note: nearly all actives have a fitted effect of over 50% in size; note: potency is the fitted concentration of half-maximal effect
# How it was run: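 In quantitative high-throughput format, 3T3 Gli1-Luc cells were exposed to compounds for 24hr and multiplexed for viability using CellTiter-Fluor, incubated 1hr at 37C before the fluorescence read.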
# [8] = qHTS assay to identify small molecule HDAC inhibitors - cell viability counter screen (AID 1259365); note: nearly all actives have a fitted effect of over 50% in size; note: potency is the fitted concentration of half-maximal effect
# How it was run: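 Measured quantity is CellTiter-Glo luminescence from wild-type HCT-116 cells after compound incubation of 2hr at 37C, 5% CO2; reagent developed 30min at room temperature.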
# [9] = qHTS assay to identify small molecule phospholipidosis (PLD) inducers (AID 1259344; active = well fitted curve in the direction sought with a large enough effect; inconclusive = small, poorly fitted or top-dose-only effect, or another doubt; inactive = no such curve, though single readings can be large; an effect the other way counts as inactive or inconclusive; note: potency is the fitted concentration of half-maximal effect)
# How it was run: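 Read-out is LipidTOX Red fluorescence (ex 595/em 615) imaged in HepG2 cells after 24 h compound exposure at 37 C, with Hoechst nuclear counterstain (ex 352/em 461) allowing per-cell normalisation.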
# Tags give direction and shape of the fitted curve.
compound,measurement,setting,value
C1CCC(C(CC2CCCCN2)C2CCCCC2)CC1 (stereo unspecified),Potency,[1],active: 26.6 µM
same,Potency,[2],"inconclusive: 33.5 µM [inhibitor, single point]"
same,Potency,[3],"inconclusive: 33.5 µM [inhibitor, single point]"
same,Potency,[4],"inconclusive: 33.5 µM [cytotoxic, single point]"
same,Potency,[5],"inconclusive: 33.5 µM [inhibitor, partial curve, poor fit]"
COc1cc2[nH]c(=O)[nH]c(=O)c2cc1OC,Potency,[1],inactive
CC(C)=CCC/C(C)=C/CC/C(C)=C/C(=O)OCC(=O)[C@@]1(O)CC[C@H]2[C@@H]3CCC4=CC(=O)C=C[C@]4(C)[C@H]3[C@@H](O)C[C@@]21C,Potency,[1],inconclusive: 29.8 µM [cytotoxic]
same,Potency,[3],active: 26.6 µM
O=C(NOCC1CC1)c1ccc(F)c(F)c1Nc1ccc(I)cc1Cl,Potency,[1],inconclusive: 26.6 µM [cytotoxic]
same,Potency,[2],active: 8.41 µM
same,Potency,[5],active: 13.3 µM
CC(CN(CCN(CC(C)OCCO)CC(C)OCCO)CC(C)OCCO)OCCO (stereo unspecified),Potency,[1],"inconclusive: 29.5 µM [cytotoxic, full curve]"
C=CCNc1nc(NCC=C)nc(N2CCN(C(c3ccc(F)cc3)c3ccc(F)cc3)CC2)n1,Potency,[1],inconclusive: 29.8 µM [cytotoxic]
same,Potency,[2],active: 10.6 µM
same,Potency,[6],inactive
same,Potency,[7],inactive
CCN(Cc1cccc(S(=O)(=O)O)c1)c1ccc(C(=C2C=CC(=[N+](CC)Cc3cccc(S(=O)(=O)O)c3)C=C2)c2ccc(O)cc2S(=O)(=O)[O-])cc1,Potency,[1],active: 18.6 µM
same,Potency,[3],active: 16.6 µM
same,Potency,[8],active: 9.32 µM
same,Potency,[4],active: 16.6 µM
C[C@]12CC[C@H]3C(=CCc4cc(O)ccc43)[C@@H]1CCC2=O,Potency,[1],inactive
same,Potency,[2],"inconclusive: 0.0863 µM [inhibitor, full curve, poor fit]"
same,Potency,[7],inactive
same,Potency,[4],"inconclusive: 61.1 µM [cytotoxic, partial curve, poor fit]"
CN[C@H]1CC[C@@H](c2ccc(Cl)c(Cl)c2)c2ccccc21,Potency,[1],"inconclusive: 33.5 µM [cytotoxic, single point]"
same,Potency,[3],"inconclusive: 29.8 µM [inhibitor, partial curve, poor fit]"
same,Potency,[7],inactive
same,Potency,[5],active: 18.8 µM
CC(C)(C)C(=O)C1C(=O)c2ccccc2C1=O,Potency,[1],"inconclusive: 48.1 µM [cytotoxic, partial curve]"
same,Potency,[3],"inconclusive: 67.9 µM [inhibitor, single point]"
same,Potency,[8],inactive
same,Potency,[7],"inconclusive: 67.9 µM [cytotoxic, single point] and inactive"
same,Potency,[4],"active: 60.5 µM and inconclusive: 68.6 µM [cytotoxic, single point]"
same,Potency,[5],"inconclusive: 67.9 µM [inhibitor, single point]"
CC(C)=CCC/C(C)=C\CO,Potency,[1],inactive
Oc1ccc(Sc2ccc(O)cc2)cc1,Potency,[1],inactive
CN1CCN(CCC(=O)N2c3ccccc3Sc3ccc(C(F)(F)F)cc32)CC1,Potency,[1],"inconclusive: 29.8 µM [cytotoxic, partial curve, poor fit]"
same,Potency,[2],"inconclusive: 33.5 µM [inhibitor, single point]"
same,Potency,[9],"inconclusive: 12.6 µM [activator, partial curve, poor fit]"
same,Potency,[7],"inconclusive: 13.3 µM [cytotoxic, partial curve]"
same,Potency,[4],"inconclusive: 11.9 µM [cytotoxic, partial curve]"
C#C[C@]1(O)CC[C@H]2[C@@H]3CCC4=Cc5oncc5C[C@]4(C)[C@H]3CC[C@@]21C,Potency,[1],inconclusive: 68.6 µM [cytotoxic]
same,Potency,[3],"active: 30.6 µM and inconclusive: 23.7 µM [inhibitor, partial curve]"
same,Potency,[7],"inconclusive: 77 µM [cytotoxic, single point]"
same,Potency,[4],inactive
same,Potency,[5],active: 2.17 µM and active: 11.9 µM
O=C(O)c1cccnc1C(=O)O,Potency,[1],inactive
O=C1CC2(CCCC2)CC(=O)N1CCCCN1CCN(c2ncccn2)CC1,Potency,[1],"inconclusive: 61.1 µM [cytotoxic, partial curve, poor fit]"
CC1CCCCN1CCCOC(=O)c1ccc(OC2CCCCC2)cc1 (stereo unspecified),Potency,[1],"inconclusive: 26.6 µM [cytotoxic, single point]"
same,Potency,[2],"inconclusive: 33.5 µM [inhibitor, single point]"
same,Potency,[5],"inconclusive: 18.8 µM [inhibitor, partial curve]"

# Source: PubChem BioAssay (Tox21)
